Assay results reported in PubChem BioAssay AID360 (National Center for Advancing Translational Sciences (NCATS), 2006).
The campaign covered roughly 48,000 compounds. About 550 (1.1%) were called active. About 4% were inconclusive and are not listed. Cut-off read from the data, not from the text of the source: active = potency below about 15 µM; inconclusive = mostly about 16 µM to 33 µM; inactive = weaker than that. This is one part of the list.

target: Lysosomal acid glucosylceramidase (Homo sapiens) (UniProt P04062); assay: Glucocerebrosidase; conditions: purified enzyme, resorufin glucoside fluorescence (screen aimed at inhibitors), 20 min;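 note: the screen sought inhibitors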
Outline: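 Compounds titrated against 0.2 nM normal enzyme, 30 uM resorufin beta-D-glucopyranoside substrate, citrate/phosphate buffer with taurocholate and tween-20, pH 5.9. Reaction ran 20 min at room temperature; fluorescence (Ex 548/Em 600) gave AC50.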
Potency is the fitted concentration of half-maximal effect.

Sequence of UniProt P04062 (P04062 whole entry, looked up): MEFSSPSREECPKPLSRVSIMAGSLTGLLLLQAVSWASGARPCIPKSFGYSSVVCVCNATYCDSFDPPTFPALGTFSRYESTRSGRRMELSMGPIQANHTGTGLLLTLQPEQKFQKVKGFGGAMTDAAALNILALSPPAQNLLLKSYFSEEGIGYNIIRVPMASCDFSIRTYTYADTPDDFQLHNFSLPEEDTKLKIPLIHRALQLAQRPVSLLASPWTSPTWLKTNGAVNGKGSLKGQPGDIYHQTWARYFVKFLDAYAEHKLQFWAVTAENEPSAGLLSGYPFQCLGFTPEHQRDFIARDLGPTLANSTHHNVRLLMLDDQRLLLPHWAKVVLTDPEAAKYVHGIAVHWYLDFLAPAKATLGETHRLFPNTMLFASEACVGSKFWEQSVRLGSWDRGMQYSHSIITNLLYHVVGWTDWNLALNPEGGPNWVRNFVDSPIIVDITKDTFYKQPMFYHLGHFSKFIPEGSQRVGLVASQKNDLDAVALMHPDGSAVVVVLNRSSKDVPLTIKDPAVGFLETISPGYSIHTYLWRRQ

Potency, inactive:
Cc1ccc2nc3c(cc(C(=O)NCc4cccnc4)c(=N)n3C(C)C)c(=O)n2c1 > 76.9 µM
Cc1ccc(NC(=O)c2ccccc2O)cc1 > 76.9 µM
COc1ccc(NC(=O)c2cnc(C)cn2)c2ncccc12 > 76.9 µM
COCC(=O)Nc1cccc(Br)c1 > 76.9 µM
Cc1cccc(C)c1NC(=O)Cn1c(=O)n(CCC(=O)NCc2ccco2)c(=O)c2sccc21 > 76.9 µM
O=C(O)CN1CCN(Cc2ccccc2)C1=O > 76.9 µM
COc1ccc(-n2c(=O)[nH]cc(C(=O)N3CCc4ccccc43)c2=O)cc1 > 76.9 µM
Cc1ccc(C(=O)N(c2ccccn2)C(C)c2ccco2)cc1 (stereo not given) > 76.9 µM
CC(Sc1ccccn1)C(=O)Nc1ccccc1 (stereo not given) > 76.9 µM
O=C(CSc1nc2ccccc2c(=O)[nH]1)N1CCCCCC1 > 76.9 µM
COc1ccc(OC)c(C(=O)COC(=O)c2cc(C)oc2C)c1 > 76.9 µM
O=C(c1cc2ccccc2oc1=O)N(Cc1ccc2c(c1)OCO2)Cc1ccco1 > 76.9 µM
Cc1n[nH]c(C)c1CCc1nc2c3ccccc3nc(SCC(N)=O)n2n1 > 76.9 µM
O=C(COC(=O)C1CC1)c1c[nH]c2ccccc12 > 76.9 µM
CCOC(=O)CNC(=O)COc1ccc(Cl)cc1Br > 76.9 µM
COC(=O)C1=C(C)N(C)C(=O)NC1c1ccccc1 (stereo not given) > 76.9 µM
O=C(Oc1ccc(OC(=O)N2CCCCC2)cc1)c1ccccc1 > 76.9 µM
O=C(NCC1COc2ccccc2O1)C1C2C=CC3(CN(Cc4ccccc4Cl)C(=O)C13)O2 (stereo not given) > 76.9 µM
O=C(O)C1C2C=CC(O2)C1C(=O)NCCCn1ccnc1 (stereo not given) > 76.9 µM
CCc1ccccc1NC1=NCC(=O)N1Cc1ccccc1 > 76.9 µM
Cc1ccccc1-n1c(=O)cc(NCC2CCCO2)[nH]c1=O (stereo not given) > 76.9 µM
Cc1nc2ccccn2c1-c1nnco1 > 76.9 µM
O=C(CCNc1n[nH]c(=O)[nH]c1=O)N1CCOCC1 > 76.9 µM
CC(C)CCNC(=O)CN(Cc1ccc2c(c1)OCO2)C(=O)Cn1nnc(-c2cccs2)n1 > 76.9 µM
CC1CCc2sc3nc(NCc4ccco4)n4ncnc4c3c2C1 (stereo not given) > 76.9 µM
O=C(NC1CCCCCC1)C1CCN(c2nc3ccccc3o2)CC1 > 76.9 µM
CCCN(CCC)CCSc1nc(O)c(C(C)C)c(=O)[nH]1 > 76.9 µM
Cc1cc(SCC(=O)c2ccccc2)nc(C)n1 > 76.9 µM
O=C(c1cccc(C(F)(F)F)c1)N1CCCC1 > 76.9 µM
Cn1c(=O)c(=O)n(C)c2cc(S(=O)(=O)N3CCCCC3)ccc21 > 76.9 µM
COc1nc(NC(C)(C)C)nc(Oc2ccc(=O)n(-c3ccccc3)n2)n1 > 76.9 µM
CN1CCC(NC(=O)Cc2c(F)cccc2Cl)CC1 > 76.9 µM
COC(=O)CSc1nc2c(c(=O)[nH]c(=O)n2C)n1CCC(C)C > 76.9 µM
Cc1cc(C)c(C#N)c(=N)o1 > 76.9 µM
CCOc1ccc(OCC)c(NC(=O)CN2CCN(c3cccc(C)c3C)CC2)c1 > 76.9 µM
CCn1c2ccccc2c2nnc(SCC(=O)Nc3ccc4c(c3)OCO4)nc21 > 76.9 µM
CC(=O)Cc1nsc(NC(=O)c2csc3c2CCCC3)n1 > 76.9 µM
CN(C)c1ccc(/C=[N+](\[O-])C2SC(=S)N(C)C2(C)C)cc1 (stereo not given) > 76.9 µM
Cc1ccc(Nc2nc(C)c(CCC(C)C)c(=O)[nH]2)cc1 > 76.9 µM
COCC(C)NC(=O)CCS(=O)(=O)c1nc(-c2ccc(OC)cc2)cc(C(F)(F)F)n1 (stereo not given) > 76.9 µM
CCOC(=O)c1cccc(NC(=O)C2CCCN(S(=O)(=O)c3c(C)n[nH]c3C)C2)c1 (stereo not given) > 76.9 µM
Cc1nc(CSc2nnc3scc(-c4ccccc4)n23)cs1 > 76.9 µM
Cc1noc(C)c1S(=O)(=O)N(CC(=O)O)c1ccc2c(c1)OCO2 > 76.9 µM
O=C(CCCC(=O)N(CC(=O)NC1CCCC1)Cc1ccccc1Cl)Nc1ccccn1 > 76.9 µM
O=C(CS(=O)(=O)Cc1ccccc1)NCc1ccc2c(c1)OCO2 > 76.9 µM
O=C(Oc1ccccc1C(=O)N1CCOCC1)c1ccccc1 > 76.9 µM
CC(C)(C)c1ccccc1NC(=O)c1ccco1 > 76.9 µM
COc1ccc(C(O)P(=O)(O)CCc2ccccc2)cc1 (stereo not given) > 76.9 µM
O=C(O)c1cccc(NC(=O)C2CC(=O)N(Cc3ccccc3)C2)c1 (stereo not given) > 76.9 µM
CCOc1ccc2cc(S(=O)(=O)N3CCOCC3)ccc2c1 > 76.9 µM
Cc1nnc2sc(-c3ccccn3)nn12 > 76.9 µM
O=C(NCCCN1CCCCCC1)C1CC(=O)N(CCc2ccccc2)C1 (stereo not given) > 76.9 µM
CC(C)CN1C(=O)NC(NC(=O)c2ccco2)(C(F)(F)F)C1=O (stereo not given) > 76.9 µM
COc1cc(OC)cc(C(C)=O)c1 > 76.9 µM
COc1cc2[nH]c(=O)n(CCCC(=O)N3CC=C(c4ccccc4)CC3)c(=O)c2cc1OC > 76.9 µM
Cn1c(=O)c(C(=O)Nc2ccccn2)c(O)c2ccccc21 > 76.9 µM
COc1cc(NC(=O)C2CCN(S(=O)(=O)c3cccnc3)CC2)cc(OC)c1OC > 76.9 µM
N#CCCN1CCN(Cc2cc(-c3ccccc3)ccc2O)CC1
Cn1c(C(=O)N2COCC2(C)C)cc2c(=O)n3ccccc3nc21 > 76.9 µM
COc1ccc(S(=O)(=O)Nc2ccccn2)cc1OC > 76.9 µM
